The supplement of paper PMC11417369
± gives the standard deviation of the averaged measurements. This is one part of the list.

test system: PfAP2-LT AP2 domain (GST-tagged); test: gcPBM binding intensity (ln(normalized median fluorescence intensity)); higher = stronger DNA binding
How it was run: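 Binding intensity is the highest Masliner-normalised natural-log median intensity over replicate spots in either probe orientation. To obtain it, GST-tagged P. falciparum DNA-binding domains made in E. coli were incubated for 1 h on an Agilent 4 × 180k array of primer-extended double-stranded 36-bp intergenic genomic probes plus negative controls. Detection used Alexa488 anti-GST antibody with scanning at 488 nm.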

Sequence | gcPBM binding intensity (ln)
TCCGTATAATTTTGCACACGAATATAAATTTGATAA [CACACA_site136] | 8.86 ± 0.33
ATTATATCACTGTGTTGTACTTCTTATATAAAAATA [XGTACX_site2333] | 8.69 ± 0.45
ACATATCGGGTGCATTAACACACATTTATTTGAATA [CACACA_site8736] | 8.97 ± 0.48
ATATTACACAGATATGCACACATTGTAGTTATTTAT [CACACA_site5454] | 9.19 ± 0.38
AAAAAGGAAATTTACACACACATATAACATACATTA [CACACA_site7534] | 9.4 ± 0.35
ATAAAAATAAAATGGACACACATATATACATATTTG [CACACA_site3277] | 9.08 ± 0.44
AATTATAATAAATAACGTACAAAAAATAAATTATTT [XGTACX_site3627] | 8.73 ± 0.37
TATATATTCATGTGTACACACAAAAAAAAATAAAGT [CACACA_site2207] | 9.59 ± 0.37
ATAAGCGAATATATATCACACACAAAAAAATCAGAC [CACACA_site8657] | 9.56 ± 0.4
TTTTTTTTTGATATTTGTACTTAAGTAAATATTATA [XGTACX_site3843] | 8.46 ± 0.45
TATCTTTTATAAGTGACACACATAAATATTTAAATT [CACACA_site833] | 8.59 ± 0.43
ATATTAGGGTCATGAACACACAAAAAAAAAAAAAAA [CACACA_site937] | 8.93 ± 0.65
GCTATCATATCATGTTGTACACAACCTCAAAATGAA [XGTACX_site8757] | 8.74 ± 0.32
TCATATTTACAAAAAGGTATTAATAAATAAAATATT [CACACA_negctrl_site259] | 8.53 ± 0.42
AATAAGTGTTGATTCTTAAAATGACCATATAATAAT [TGCATGCA_negctrl_site221] | 8.73 ± 0.41
CGTTTATTAAACTTGACACACACACCCCCACATATA [CACACA_site8151] | 9.975 ± 0.064
TATATATATATATATGCATGCCATATGATATATATA [TGCATGCA_site109] | 9.71 ± 0.4
AATCGATAACAATGTAGTACCAGAAAAATAAATATT [XGTACX_site8501] | 8.98 ± 0.5
TTTAATTCTTATATTTGTACAGATTCATAATTAAAT [XGTACX_site7465] | 8.46 ± 0.4
TTAGTATATTTTTCCTGTACGTACTCAGATACAAAT [XGTACX_site7397] | 8.79 ± 0.45
TTAAATAATTTTTAATGTACATTAAATTTATTATTA [XGTACX_site261] | 8.38 ± 0.42
TACACATTATGTATCATACACACAAATAAATATATA [CACACA_site608] | 9.21 ± 0.31
AAAAAGAATATAAGTAGTACAGTGCATATAATAATT [XGTACX_site617] | 9.2 ± 0.49

Sequence | gcPBM binding intensity (ln)
TTTTACTCTTAAAATAATAAAAAATATTCACATTTA [CACACA_negctrl_site1508] | 8.06 ± 0.62
TATAATTTTTTTAATACACACAAATATTTATATATA [CACACA_site3042] | 8.46 ± 0.4
AATTAATGTTTTGTCACACAGTATGATTATATATAT [CACACA_site6143] | 8.89 ± 0.43
TATATATACATATACGCATGTAAATTCAAAAGTAAA [TGCATGCA_site956] | 8.79 ± 0.35
AAGAGAAATGGGCACACACACACATATTATATATAT [CACACA_site1531] | 9.95 ± 0.36
TTCTCCATCAGATACTGTACATAATATATATAATAT [XGTACX_site8827] | 8.86 ± 0.41
TGTATAACCTGTGTTACACACATTAGAATTTATATA [CACACA_site6393] | 8.83 ± 0.31
GCATCATTTATTTGCACACCTATTATATACTTTTTA [CACACA_site2098] | 9.12 ± 0.46
TATATAAAGATATATACACACAAAAAAAAAAAAAAA [CACACA_site6778] | 8.81 ± 0.57
TACATAAACTTTATAACACACACTTATATATATATA [CACACA_site1106] | 9.09 ± 0.28
AATAATAACAAATGAACACACATATATATGAGCAAA [CACACA_site2121] | 9.13 ± 0.41
TATAAAAATATATATATATATATATATATATATATA [TGCATGCA_negctrl_site541] | 9.65 ± 0.16
TTGATATAAAAAGAAAGTACTTTATAGATGTTTATT [XGTACX_site8144] | 8.65 ± 0.51
TTCTACGTTTTAAAAAAAAAAAAAAAAAAAAAAAAA [XGTACX_negctrl_site6] | 7.92 ± 0.38
ATACATATCTATAATACACACATAAATGTAACATTT [CACACA_site7621] | 9.1 ± 0.36
AATGTATTATGTAATAGTACGTATAATATCTTATTT [XGTACX_site3] | 8.77 ± 0.38
ATTATATATATTGGAGTGCATATATAGTATTTTATA | 8.67 ± 0.38
ACATATTATAGGAATACACACAAAAACTTATCGGTA [CACACA_site7587] | 9.16 ± 0.4
ATAGAAATCTATTGTGATTATTATTTTATTTTTAGT [XGTACX_negctrl_site605] | 8.52 ± 0.45
TGAAGATAAAAATATGCACACATATATATATATATA [CACACA_site8027] | 9.85 ± 0.3
CATAAAAATGAACATACACACATATATTTATTTATA [CACACA_site7222] | 8.99 ± 0.47
AATATAATCTTTCAAAAGAAAAAGACTTCATGAAAA [CACACA_negctrl_site1331] | 8.45 ± 0.41
ATATACGCATTAATAACACACAATATGATAACAAAT [CACACA_site3623] | 9.18 ± 0.38

Sequence | gcPBM binding intensity (ln)
AAAATGTATGGAATGCTCTTTTTTAAGTATTATATA [GTGCAC_negctrl_site175] | 8.51 ± 0.42
TATTTTAATATTTGTAGTACAGATTGAAATGACGAA [XGTACX_site4805] | 8.51 ± 0.45
TTTATTTATTATTAAAGTACTAAAATATATTATTAT [XGTACX_site4887] | 8.28 ± 0.55
ATACGTATTTTCTTTTGTACATATATATAAAATATT [XGTACX_site2675] | 8.79 ± 0.34
TATATTTATTAGTTTCGTACGTACAAAGTTATTTTT [XGTACX_site8847] | 8.84 ± 0.42
AATATTGCACCATTTTGTACATAATATATTCAAATA [XGTACX_site475] | 8.75 ± 0.44
ACAAAATTGATATATGCACACATATATATATTAAAT [CACACA_site8152] | 9.1 ± 0.4
GTAGGTTTATATTGTAGTACATACAAACGTTAACAA [XGTACX_site5476] | 8.89 ± 0.31
TATTTTGTTCTTTCCACACACAAATACCTATCTTGT [CACACA_site7833] | 9.49 ± 0.4
GCTATTTATTTATATTGTACTTTTTTTTTTTTTTTT [XGTACX_site3624] | 8.78 ± 0.63
TTTTTTTTTTGATGTTGTACATATATATTATATAAT [XGTACX_site2765] | 8.69 ± 0.36
TTTTTTTTTGGGGGTGCATGCAAGACATATATTTAA [TGCATGCA_site228] | 9.07 ± 0.085
CATACATATATATATACACACATACATATATATACA [CACACA_site8165] | 9.2 ± 0.3
ATTCGTGAACTAGCCAAACACACGAAAAAAAAAAAA [CACACA_site3342] | 8.86 ± 0.45
TTTTATTGATTATTCATAAATATGCTATTCATCTAA [CACACA_negctrl_site1084] | 8.51 ± 0.49
ATGTAACATAGGAAATGTACATATAAATATAATTTA [XGTACX_site6452] | 8.93 ± 0.45
CACACAATGGCTAGCTGTACATAATATATATCTACA [XGTACX_site4691] | 8.88 ± 0.31
TAAAAACAAAAATGTTGTACATAATATAAAACAATT [XGTACX_site6380] | 8.74 ± 0.38
TATATAAATATACAAACACACATACAAACATATATA [CACACA_site4754] | 9.29 ± 0.34
GAAAATAAAATAAATGCATGTAAATTTAATGTAATG [TGCATGCA_site996] | 9.01 ± 0.52
AAAAAAAACGAACACACACACAAATATGTAAAAATA [CACACA_site6673] | 9.87 ± 0.28
TTAACAAATAGACACACACACACACGCAAAAAAAAA [CACACA_site6387] | 10.3 ± 0.33
ATATATATATTTACATGTACACATCTATATATAAAC [XGTACX_site5581] | 8.99 ± 0.35

Sequence | gcPBM binding intensity (ln)
TTTTTTTTTCATTATTGTACATTGAAACTTCATTTT [XGTACX_site6041] | 8.84 ± 0.5
AAAAAAAAAAAATGTGCATGCTATATATATATATAT [TGCATGCA_site727] | 9.75 ± 0.16
GAATATAAACATATTACACACATCTATCTGTACATT [CACACA_site5114] | 9.41 ± 0.2
TGGTATCAAAAGAATACACACACACCGACATATATA [CACACA_site9265] | 9.8 ± 0.34
TACATACATACATACACACACACATATAAATACATA [CACACA_site4626] | 10.1 ± 0.4
TCTCTAACTTTTAATACACACAAATAAATAAATAAA [CACACA_site6245] | 8.48 ± 0.53
GTTTTATTTATTTCATGTACACAAAAAAGGTTTTAA [XGTACX_site6525] | 8.53 ± 0.47
AAAATAAAATAATAAAATAAAATAATAATAAAATAA [TGCATGCA_negctrl_site401] | 8.66 ± 0.55
AATACATATATATATTGTACATATAGGGAAAAATTA [XGTACX_site2275] | 8.96 ± 0.49
GTGGGAAACATAAACACACACAAAAAGAAAAAATAG [CACACA_site4810] | 9.45 ± 0.54
ACTTATAAAATAACATGTACAAATATTTATTATATA [XGTACX_site133] | 8.66 ± 0.49
AATATTTTTTTATAAACACACATATATATAAATATA [CACACA_site3524] | 8.53 ± 0.4
TATATAAATATAATATGTACATATAATATGTATATA [XGTACX_site8120] | 8.77 ± 0.38
TAATAATTTATATATGCATGTCAAAATAATATTAAA [TGCATGCA_site12] | 8.37 ± 0.48
TATATATTTTTATGTGTGCACTGTTTCATAAAAGAA | 8.84 ± 0.36
TATGGTAACATATGCTGTACAATATAATATGTTTAA [XGTACX_site1601] | 8.7 ± 0.45
AAAAAAAAAAGGTGTACATGCAAAATAAATTCTTAA [TGCATGCA_site556] | 8.93 ± 0.48
AAATTATAAATACCTACACACTTATCAAAATAAATT [CACACA_site5280] | 8.82 ± 0.33
TAAACATAAATATACACACAAACATATATGTATTTT [CACACA_site1214] | 9.11 ± 0.38
AAAAAAAAAAAACACACACACACACCGACAAAATAT [CACACA_site8411] | 10.4 ± 0.25
